Experimental data published in a collection of fitness landscapes (doi:10.1016/j.celrep.2020.107928).
In all, about 81,000 sequences were measured (“one-hybrid fitness for binding NBS DNA”: median about -0.1, highest 2% from about 0.36 on). Some of the results follow.

B1: Caulobacter ParB omega fusion; a variant is named by its letters at X, in order, B8GW30 (parent)
chain: MESVVVGEPGMSEGRRGLGRGLSALLGEVDAAPAQAPGEQLGGSREAPIEILQRNPDQPRRTFREEDLEDLSNSIREKGVLQPILVRPSPDTAGEYQIVAGERAWRAAQRAGLKTVPIMVRELDDLAVLEIGIIENVQRADLNVLEEALSYKVLMEKFERTQENIAQTIGKSXSHVANXMRLLXLPDEVQSYLVSGELTAXHARAIAAAADPVALAKQIIEGGLSVRETEALARKAPNLSAGKSKGGRPPRVKDTDTQALESDLSSVLGLDVSIDHRGSTGTLTITYATLEQLDDLCNRLTRGI

Variants of: B1
Assay: one-hybrid fitness for binding NBS DNA (the Noc-binding site; scaled: cognate 1, non-cognate 0); higher = stronger binding
Settings: with NBS DNA site
Procedure, shortened: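 The reporter was HIS3, with the binding site 19 bp from the promoter, in E. coli USO used for bacterial one-hybrid selection of Caulobacter ParB libraries with four specificity codons randomised. Growth was on M9 lacking histidine, with 0.1 mM IPTG and 5 mM 3-AT, for 48 hours at 37°C. Illumina sequencing covered plasmids before and after selection; three replicate libraries were pooled and variants with under 10 reads dropped. A fitness score is the log change in variant-to-wild-type read ratio, rescaled to the cognate and non-cognate references.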

one-hybrid fitness for binding NBS DNA, 0.44:
QIRH

one-hybrid fitness for binding NBS DNA, 0.8:
QQRT

one-hybrid fitness for binding NBS DNA, 0.357:
RSKH

one-hybrid fitness for binding NBS DNA, ≤ 0.2:
ITHW
NPMR
YAVS
AQDS
RGWN
QAKD
STTL
PNYA
YGPR
IQDS
RCPQ
GCWR
KAGT
RELR
IGYC
QEVC
SVLS
DTYA
GALY
YAEK
PDPE
RPWA
ENIK
HHEC
SMDF
ADLF
PLKW
LAEM
ESRP
TKAE
SNHD
LLNK
GLPE
ARGC
QMWG
GNLL
PQPE
CCTP
FRPH
ENSR
QGVI
DGAK
YCPV
GWLG
CIYD
TAMY
AVKV
WAFC
CHTE
ANEM
RPWT
WRDT
YTHT
GRQT
PLDA
AGQV
QHWF
PVGQ
NMDM
FTPH
VLNW
MLQK
GTQC
RQNN
SPDE
HRYT
TVPA
NETV
LCPL
IMHE
ATMH
PRRI
SYYM
DNLY
YVLV
CHPG
HWPR
DDSM
YSHW
NLEL
KGWF
PRNS
KKEP
GWWE
NTLI
TAQE
PECW
TTTV
SFTM
HHAG
KAGG
FTNK
DYES
NGSK
NNWR
EVDN
TRVH
DYET
WFGY
CTSF
YTRI
YPLR
GVVG
RKYC
TKAL
EIVG
DRKI
YMPP
KFLS
FFTW
SAKT
MYRR
APKF
YICS
PELY
KIAS
AALQ
NTMA
PFTC
QCCD
RIGP
VSHL
AINV
GHAI
HVGR
QENS
LVMG
TDCT
RKDN
DERS
GQVQ
YFGS
PPGY
GKLS
ICQS
HRQN
PPMT
VPDE
DNIG
KPRI
SWPL
NWKR
GLNM
GFPR
RNAH
RAHV

one-hybrid fitness for binding NBS DNA, 0.224:
QTSK

one-hybrid fitness for binding NBS DNA, 0.685:
QRTS

one-hybrid fitness for binding NBS DNA, 0.566:
QMRY

one-hybrid fitness for binding NBS DNA, 0.291:
ICRR
